# According to PubChem BioAssay AID1347165 (National Center for Advancing Translational Sciences (NCATS), 2019):
# Screen size: about 220,000 compounds; about 5,700 (2.6%) were called active. This list was built around the results that the source calls inconclusive (neither active nor inactive); the mix of calls is not that of the screen. The call rests on the fitted dose curve; in most records, active means well fitted inhibition curve with a large enough effect; inconclusive means small, poorly fitted or top-dose-only effect; inactive means no such curve, though single readings can be large or run the other way. Where the call is inconclusive, the potency comes from a doubtful curve fit.
# Target: Lysine-specific demethylase 5B (Homo sapiens) (UniProt Q9UGL1)
# Assay: Primary screen for KDM5B Histone Demethylases FDH-coupled qHTS; further: nearly all actives have a fitted effect of over 70% in size; on activity change, negative = inhibition: 0% is about no effect
# Conditions: FDH-coupled NADH fluorescence (FDH is formaldehyde dehydrogenase); activity change, negative = inhibition: at 57.7 µM (top of the series) unless noted
# In short: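 KDM5BΔAP (200 nM final) in 50 mM HEPES pH 7.5, 0.01% Tween-20 was preincubated 10 min at RT with compound over a concentration range. Substrate mix (H3K4me3 12.5 µM, α-KG 25 µM, Fe²⁺, ascorbate, NAD⁺, FDH) was added, and NADH fluorescence change over 30 min gave dose-response curves.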
# Potency means the concentration at half of the fitted maximal effect; tags describe the fitted curve by direction and shape.
# Sequence of UniProt Q9UGL1 (Q9UGL1 whole entry, looked up): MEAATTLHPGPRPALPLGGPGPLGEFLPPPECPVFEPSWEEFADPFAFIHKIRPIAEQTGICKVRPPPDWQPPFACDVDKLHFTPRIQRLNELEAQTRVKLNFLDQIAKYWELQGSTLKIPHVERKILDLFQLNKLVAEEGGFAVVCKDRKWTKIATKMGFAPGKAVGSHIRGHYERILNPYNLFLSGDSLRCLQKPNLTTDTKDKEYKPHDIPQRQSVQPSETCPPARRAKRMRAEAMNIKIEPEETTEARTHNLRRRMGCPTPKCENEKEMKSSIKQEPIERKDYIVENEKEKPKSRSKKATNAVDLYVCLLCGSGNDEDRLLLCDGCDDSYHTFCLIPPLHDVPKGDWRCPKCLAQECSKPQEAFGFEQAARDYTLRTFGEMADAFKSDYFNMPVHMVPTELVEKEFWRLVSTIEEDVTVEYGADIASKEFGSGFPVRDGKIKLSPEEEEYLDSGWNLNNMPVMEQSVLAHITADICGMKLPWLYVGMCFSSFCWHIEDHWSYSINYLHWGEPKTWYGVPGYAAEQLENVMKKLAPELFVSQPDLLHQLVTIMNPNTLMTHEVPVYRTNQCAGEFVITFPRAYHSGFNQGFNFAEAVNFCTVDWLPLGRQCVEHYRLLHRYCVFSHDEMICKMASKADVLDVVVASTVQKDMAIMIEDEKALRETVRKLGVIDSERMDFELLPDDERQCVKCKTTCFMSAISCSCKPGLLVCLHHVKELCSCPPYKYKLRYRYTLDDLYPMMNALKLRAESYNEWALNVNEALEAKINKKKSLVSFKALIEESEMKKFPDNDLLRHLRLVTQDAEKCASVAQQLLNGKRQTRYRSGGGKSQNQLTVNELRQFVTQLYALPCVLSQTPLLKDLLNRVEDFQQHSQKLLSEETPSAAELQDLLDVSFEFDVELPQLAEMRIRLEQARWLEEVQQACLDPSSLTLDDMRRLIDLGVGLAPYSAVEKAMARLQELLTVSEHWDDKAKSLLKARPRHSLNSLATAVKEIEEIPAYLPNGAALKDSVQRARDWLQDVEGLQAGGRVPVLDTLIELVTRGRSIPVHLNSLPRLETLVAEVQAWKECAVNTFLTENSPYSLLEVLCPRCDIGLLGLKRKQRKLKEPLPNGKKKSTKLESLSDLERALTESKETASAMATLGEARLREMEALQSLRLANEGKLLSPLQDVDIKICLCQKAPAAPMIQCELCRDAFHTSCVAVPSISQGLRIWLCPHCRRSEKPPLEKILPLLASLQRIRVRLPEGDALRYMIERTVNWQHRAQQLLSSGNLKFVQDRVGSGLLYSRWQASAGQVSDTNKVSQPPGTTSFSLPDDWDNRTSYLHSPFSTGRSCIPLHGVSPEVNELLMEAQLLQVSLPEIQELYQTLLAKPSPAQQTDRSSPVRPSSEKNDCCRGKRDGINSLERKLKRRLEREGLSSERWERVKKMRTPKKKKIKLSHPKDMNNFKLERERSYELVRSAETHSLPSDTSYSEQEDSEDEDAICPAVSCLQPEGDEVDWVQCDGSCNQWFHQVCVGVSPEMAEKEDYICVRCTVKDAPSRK
Compound,Potency,"activity change, negative = inhibition"
CCc1noc(-c2ccn3c(CNC(=O)c4cccc(Cl)c4)nnc3c2)n1,"inconclusive: 0.708 µM [inhibitor, full curve, poor fit]",–
CN1CCN(C(C(=O)O)c2cn(C)c3cc(C(=O)O)ccc23)CC1 (stereo unspecified),"inconclusive: 20 µM [inhibitor, partial curve, poor fit]",–
COc1ccccc1NS(=O)(=O)c1cc(-c2cnc(C)o2)ccc1C,inactive,–
COc1ccc(NC(=O)C(C)Oc2ccc(C)c(C)c2)c2cccnc12 (stereo unspecified),"inconclusive: 39.8 µM [inhibitor, single point]",–
O=C(c1ccncc1)N1CCc2c(nc3cc(-c4ccccc4Cl)[nH]n3c2=O)C1,"inconclusive: 17.8 µM [inhibitor, partial curve]",–
Cc1ccccc1NC(=O)Cc1c[nH]c2ncc(-c3cnn(C)c3)cc12,"inconclusive: 28.2 µM [inhibitor, partial curve, poor fit]",–
CC(C)Oc1cccc(-c2n[nH]c3c2CC(=O)N(CCOc2ccccc2)C3)c1,"inconclusive: 20 µM [inhibitor, partial curve, poor fit]",–
CCOCCCn1c(=NC(=O)c2cccs2)c(C#N)cc2c(=O)n3ccccc3nc21,"inconclusive: 22.4 µM [inhibitor, partial curve, poor fit]",–
O=C(C1NCCc2[nH]cnc21)N1CCc2nnc(-c3ccccc3)n2CC1 (stereo unspecified),inactive,–
Cc1c(CN2CCC(O)(c3ccccc3)[C@H](N3CCCC3)C2)cnn1C (stereo partly specified),"inconclusive: 4.47 µM [inhibitor, full curve]",–
O=C1CC(c2ccccc2)N(C(=O)CNC(=O)c2[nH]nc3c2CCc2ccccc2-3)CCCCCCN1 (stereo unspecified),inactive,–
Cn1c(SCC(=O)NCc2cccs2)nnc1-c1ccc2c(c1)OCCCO2,inactive,–
COC(=O)c1ccccc1-n1c(CCC(=O)O)ccc1-c1ccccc1,"inconclusive: 28.2 µM [inhibitor, partial curve, poor fit]",–
CCN(CCNC(=O)CCc1cc2cc(OC)ccc2[nH]c1=O)Cc1ccccc1,"inconclusive: 28.2 µM [inhibitor, partial curve, poor fit]",–
Cc1nccn1-c1ccccc1CNC(=O)[C@H]1CC[C@@H](N)C1,"inconclusive: 3.98 µM [inhibitor, partial curve, poor fit]",–
O=C(NCc1ccccc1Cl)c1cc2cccc3c2n1CCS3,"inconclusive: 31.6 µM [inhibitor, partial curve, poor fit]",–
c1cn(-c2ccc(N3CCCCCC3)nc2)c(-c2cc3n(n2)CCCNC3)n1,"inconclusive: 28.2 µM [inhibitor, partial curve, poor fit]",–
COc1cc(OC)c(C2CC(=O)Oc3n[nH]c(-c4ccccc4)c32)cc1OC (stereo unspecified),"inconclusive: 12.6 µM [inhibitor, partial curve, poor fit]",–
O=C(CSc1ccc(-c2ccco2)nn1)Nc1ccccc1F,"inconclusive: 22.4 µM [inhibitor, single point]",–
COc1ccc(-c2c(C)c3cc(OS(C)(=O)=O)ccc3oc2=O)cc1,"inconclusive: 28.2 µM [inhibitor, partial curve, poor fit]",–
Cc1ccc(C(CNC(=O)c2cc(=O)c3cc(Cl)ccc3o2)N2CCN(C)CC2)o1 (stereo unspecified),inactive,–

Compound,Potency,"activity change, negative = inhibition"
CC1CCC(C(=O)Nc2ccc3ccccc3c2)CC1 (stereo unspecified),inactive,–
COc1ccc(N2CC(c3noc(-c4cc(Cl)ccc4OC)n3)CC2=O)cc1 (stereo unspecified),"inconclusive: 31.6 µM [inhibitor, single point]",–
CN1c2cc(C(=O)Nc3ccc(F)c(Cl)c3)ccc2C(=O)N2CCCCCC21 (stereo unspecified),"inconclusive: 31.6 µM [inhibitor, partial curve, poor fit]",–
CCOc1nc2ccccc2nc1N1CCC(C(=O)Nc2cccc3ccccc23)CC1,inactive,–
COc1ccc(NC(=O)N2CCN(c3nc(C)cc(Nc4ccc(C)cc4)n3)CC2)cc1,"inconclusive: 31.6 µM [inhibitor, single point]",–
Cc1ccc(CNC(=O)c2ccc(-c3nc(CS(=O)(=O)c4ccc(C)cc4)c(C)o3)cc2)cc1,–,inconclusive: -71.1% [inhibitor] [at 11.5 µM]
O=C1CCN(S(=O)(=O)c2ccccc2)CCCN(Cc2cccc3[nH]ccc23)CCN1,"inconclusive: 25.1 µM [inhibitor, partial curve, poor fit]",–
CNc1c(NC(=O)NCCc2ccccc2)c(=O)oc2ccccc12,"inconclusive: 39.8 µM [inhibitor, single point]",–
CCOc1ccc(CCNC(=O)c2cc3sc(CC)cc3n2C)cc1OCC,"inconclusive: 25.1 µM [inhibitor, single point]",–
O=C(NC1CCCc2ccccc21)c1ccsc1 (stereo unspecified),inactive,–
COc1ccc(-c2nc3c(c(-c4ccccc4)n2)CN(C(=O)c2ccccc2F)CC3)cc1,inactive,–
COc1ccc(CNc2ncnc3c2CN(c2ccc(OC)cc2)C(=O)CN3C)cc1,"inconclusive: 20 µM [inhibitor, single point]",–
CCOC(=O)c1cnc2ccc(Cl)cc2c1Nc1ccc(N2CCOCC2)cc1,inactive,–
Cc1cc(C(=O)OCC(=O)NCC(F)(F)F)c2ccccc2n1,"inconclusive: 15.8 µM [inhibitor, partial curve, poor fit]",–
Cc1oc(-c2ccccc2F)nc1CSc1nnc(C)n2c1cc1occc12,inactive,–
COC(=O)c1ccccc1-n1cc2c(c1-c1cccc(C)c1)c(=O)n(C)c(=O)n2C,"inconclusive: 31.6 µM [inhibitor, partial curve, poor fit]",–
CCc1cccc(NC(=O)c2ccc(CNS(=O)(=O)c3ccc4c(c3)C(C)(C)C(=O)N4C)cc2)c1,"inconclusive: 17.8 µM [inhibitor, single point]",–
Cc1cccc(CN2CCN3C(=O)N(Cc4ccc(F)cc4)C[C@H]3C2)n1,"inconclusive: 35.5 µM [inhibitor, partial curve, poor fit]",–
COc1ccc(C(=O)c2ccccc2)c(OCc2ccccc2C#N)c1,inactive,–
CC(C)C(=O)NC(c1ccc(N(C)C)cc1)c1c(O)ccc2ccccc12 (stereo unspecified),"inconclusive: 31.6 µM [inhibitor, partial curve, poor fit]",–
